{"source": "the supplement of paper PMC10986608", "note": "The list shows a part of the results. Many values rest on one well or one pass, so single values are uncertain.", "data": [{"tested_on": "Candida albicans DPL-15", "assay": "growth (OD600) after compound treatment (apparently relative to screen median) (relative growth (fraction; screen median 1.02)); DPL-15 is a caspofungin-resistant clinical isolate; higher = more fungal growth (less antifungal activity)", "conditions": "25 µM; RPMI 1640; 48 h; 30 °C", "values": [{"smiles": "COc1ccccc1N1C(=O)c2[nH]nc(CC(C)C)c2C1c1ccc(F)cc1", "note": "(stereo not drawn)", "growth": 0.975}, {"smiles": "C[C@@H]1CC2=CCC[C@H]2[C@]2(O1)C(=O)Nc1cc(F)ccc12", "growth": 1}, {"smiles": "CCNC(=O)O[C@@H]1C=C[C@@H](C#Cc2ccc(C(C)(C)C)cc2)O[C@@H]1COC(C)=O", "growth": 1.09}, {"smiles": "COCCN1C(=S)NC(c2ccc(C)cc2)C(C(=O)OC)=C1C", "note": "(stereo not drawn)", "growth": 1.12}, {"smiles": "C=CCN1C(=O)c2[nH]nc(CC(C)C)c2C1c1ccc(F)cc1", "note": "(stereo not drawn)", "growth": 1.02}, {"smiles": "O=C(NC1CCCC1)[C@@H]1[C@H](C(=O)NC2CCCC2)[C@@H](c2ccccc2)[C@H]1c1ccccc1", "growth": 1.08}, {"smiles": "COc1ccc(C2=C(c3ccccc3)c3c(nc(-c4ccccn4)[nH]c3=O)C2=O)cc1", "growth": 1.25}, {"smiles": "COc1ccc2c(c1)[C@@H](NS(=O)(=O)c1ccc(C#N)cc1)[C@H](C)[C@H]2c1ccccc1", "growth": 1.14}, {"smiles": "CCc1ccccc1-n1nc(-c2ccccc2)c2c1C(=O)NC2c1ccccc1", "note": "(stereo not drawn)", "growth": 0.97}, {"smiles": "COc1ccc(Cn2nc(-c3ccccc3)cc2Nc2cc(O)cc(O)c2C(=O)N(C)CC2CCOCC2)cc1", "growth": 1.04}, {"smiles": "COC(=O)C(CC(C)(C)CCOS(=O)(=O)NC(C)(C)C)c1ccccc1", "note": "(stereo not drawn)", "growth": 1.11}, {"smiles": "C[C@]1(Cc2occc(=O)c2OS(C)(=O)=O)C(c2ccc(F)cc2)=Nc2ccccc21", "growth": 1.59}, {"smiles": "CC(C)C1=NCCNC2=C1C(c1ccc(Br)cc1)NC2=O", "note": "(stereo not drawn)", "growth": 0.935}, {"smiles": "CN(C)[C@@H]1CCN(C(=O)c2c(O)cc(O)cc2Nc2ccnn2C)C1", "growth": 0.966}, {"smiles": "CCOC(=S)SC(CC)CCOS(=O)(=O)NC(C)(C)c1ccccn1", "note": "(stereo not drawn)", "growth": 1.01}, {"smiles": "COC(=O)C1=C(C)N(Cc2cccc(C(F)(F)F)c2)C(NCc2ccc(OC)cc2)=NC1c1ccc(Cl)cc1", "note": "(stereo not drawn)", "growth": 0.9}, {"smiles": "COC(=O)C/C=C/[C@@H](C)[C@H](NC(=O)OCC(Cl)(Cl)Cl)c1cccc(OC)c1", "growth": 0.861}, {"smiles": "COc1cccc([C@H]2NC(=O)C/C=C/[C@@H](C)[C@@H](c3cccc(OC)c3)NC(=O)C/C=C/[C@H]2C)c1", "growth": 1.02}, {"smiles": "c1ccc(-c2cc3c(nc2-c2ccccc2)CCCN3)cc1", "growth": 1.06}, {"smiles": "C=C(C)CCc1n[nH]c2c1C(c1ccc(F)cc1)N(c1ccc(OC)cc1)C2=O", "note": "(stereo not drawn)", "growth": 1.07}, {"smiles": "CC(C)=CCc1cc(O)cc2oc3cccc(O)c3c(=O)c12", "growth": 1.02}, {"smiles": "CNc1cccc(OC)c1C(=O)OCC(=O)c1ccc(Br)cc1", "growth": 1.05}, {"smiles": "CC1=NCCNC2=C1C(c1cccc(C(F)(F)F)c1)N(c1ccccc1)C2=O", "note": "(stereo not drawn)", "growth": 1}, {"smiles": "COC(=O)C/C=C/[C@@H](C)[C@@H](c1ccccc1)N1C[C@@]2(O)CC[C@@H](O)[C@@H](OC)[C@@H]2[C@@]1(C)[C@H](O)CC=C(C)C", "growth": 1.12}, {"smiles": "CC[C@@H](O)COc1cc2c(cc1C1(c3cc4c(cc3OC[C@H](O)CC)OCO4)C(=O)Nc3cccc(Br)c31)OCO2", "growth": 0.958}, {"smiles": "CCCCCN(C(=O)OC(C)(C)C)S(=O)(=O)NC(C)(C)C", "growth": 1.18}, {"smiles": "CCOC(=O)c1cc2c(nc1C(=O)OCC)c(=O)nc1[nH]c(C)cc(=O)n12", "growth": 1.2}, {"smiles": "COC(=O)c1c(O)cc(C)c2c(OC)c(OC)ccc12", "growth": 1.05}, {"smiles": "COC(=O)C(C(=O)OC)c1ccccc1[N+](=O)[O-]", "growth": 0.986}, {"smiles": "C=CCN1C(=O)C2=C(C(CC(C)C)=NCCN2C)C1c1ccc(C)cc1", "note": "(stereo not drawn)", "growth": 1.06}, {"smiles": "CCCN1C(NCc2ccccc2)=NC(c2ccc(F)cc2)C(C(=O)OC)=C1C", "note": "(stereo not drawn)", "growth": 1.05}, {"smiles": "COc1ccc(N2C(=O)C3=C(C(CC(C)C)=NCC(C)(C)N3)C2c2ccc(Br)cc2)cc1", "note": "(stereo not drawn)", "growth": 0.933}, {"smiles": "CCC/C=C/C1=C(CO)C2(OCC(CC)(CC)CO2)[C@H]2O[C@H]2C1=O", "growth": 0.961}, {"smiles": "CC1=CC2=CC(=O)C=C[C@]2(O)[C@@H]2CCC3(OCCO3)[C@@]2(O[Si](C)(C)C)C1", "growth": 0.956}, {"smiles": "C[C@@H]1C2=C(CCO[C@@H]2c2ccccc2)N[C@@H]1c1ccccc1", "growth": 1.15}, {"smiles": "COC(=O)C/C=C/[C@H](C)[C@@H](NC(=O)[C@H](C)NC(=O)OC(C)(C)C)c1ccccc1", "growth": 1.03}, {"smiles": "O=C(c1ccccc1)N1CCc2nc(-c3ccccc3)c(-c3ccccc3)cc2C1", "growth": 1.09}, {"smiles": "COc1cc(CC=C(C)C)c2c(=O)oc(-c3ccccc3)cc2c1O", "growth": 0.94}, {"smiles": "Cc1nn(-c2ccc(OC(F)(F)F)cc2)c2c1C(c1ccccc1)NC2=O", "note": "(stereo not drawn)", "growth": 1.05}, {"smiles": "Cc1cc(F)ccc1C1c2c(CC(C)C)n[nH]c2C(=O)N1c1ccc(-n2ccnc2)cc1", "note": "(stereo not drawn)", "growth": 1.02}, {"smiles": "COc1ccc([C@@H]2[C@@H](C(=O)NC3CCCCC3)[C@@H](C(=O)NC3CCCCC3)[C@@H]2c2ccc(OC)c(OC)c2)cc1OC", "growth": 0.823}, {"smiles": "COC(=O)[C@@]1(/C=C/[C@@H](C)[C@H](OC)c2ccccc2Br)[C@@H]2OCCC[C@@H]21", "growth": 1.15}, {"smiles": "COCCNC(N)=S", "growth": 1.34}, {"smiles": "COCCN1C(NCc2ccccc2)=NC(c2ccccc2)C(C(=O)OC)=C1C", "note": "(stereo not drawn)", "growth": 1.13}, {"smiles": "CS(=O)(=O)Oc1c(CC23CCCCCCC2=Nc2ccccc23)occc1=O", "note": "(stereo not drawn)", "growth": 1.2}, {"smiles": "COc1ccc(OC[C@@H]2C=C(C)C[C@]3(O2)C(=O)Nc2cc(F)ccc23)cc1", "growth": 0.889}, {"smiles": "CC1=Cc2cc(O)ccc2[C@@H]2C=CC(=O)[C@H]2C1", "growth": 0.906}, {"smiles": "C#CCC(C)(C)CNC(=O)CC1(CNC(=O)c2cccc(COC(C)C)c2)CCCCC1", "growth": 1.16}, {"smiles": "CCO[C@H]1CCN(C(=O)c2c(O)cc(O)cc2Nc2cnn(C)c2)C1", "growth": 1.1}, {"smiles": "COC(=O)c1nnc(C(=O)OC)c2[nH]c(/N=C/N(C)C)nc12", "growth": 1.04}, {"smiles": "CC(=O)C1=C(C)N(Cc2ccccc2Cl)C(=S)NC1c1cccc(Cl)c1", "note": "(stereo not drawn)", "growth": 0.977}, {"smiles": "COc1cc(CNC(=O)CCCC/C=C/C(C)C)ccc1O", "growth": 0.975}, {"smiles": "CC(C)Cc1n[nH]c2c1C(c1c(Cl)cccc1Cl)N(c1ccc(N(C)C)cc1)C2=O", "note": "(stereo not drawn)", "growth": 0.953}, {"smiles": "C#CCOc1ccccc1CNC(=O)OC(C)(C)C", "growth": 0.979}, {"smiles": "COC(=O)C/C=C/[C@H](C)[C@H](NC(=O)C(F)(F)F)c1ccccc1", "growth": 1.01}, {"smiles": "CC(C)Cc1n[nH]c2c1C(c1ccc(F)cc1)N(c1ccc(Br)cc1)C2=O", "note": "(stereo not drawn)", "growth": 0.969}, {"smiles": "Nc1c(-c2ccc(F)nc2)cnc2c(-c3ccc(F)cc3)cnn12", "growth": 1.15}, {"smiles": "CC[C@@H](O)COc1cc2c(cc1C1(c3cc4c(cc3OC[C@H](O)CC)OCO4)C(=O)Nc3cc(Br)ccc31)OCO2", "growth": 0.839}, {"smiles": "CN(C)CCn1cc(Nc2cc(O)cc(O)c2C(=O)N2CC[C@H](F)C2)cn1", "growth": 1.17}, {"smiles": "COc1cc(OC)c2c(=O)c3c(CC=C(C)C)ccc(O)c3oc2c1", "growth": 0.943}, {"smiles": "CC(C)Cn1nc(-c2ccccc2)cc1Nc1cc(O)cc(O)c1C(=O)N1Cc2cccnc2C1", "growth": 0.804}, {"smiles": "COc1ccccc1Cn1nc(C)c2c1C(=O)NC2c1ccc(Br)cc1", "note": "(stereo not drawn)", "growth": 1.02}, {"smiles": "CCC(CC)[C@@H]1N=C2C[C@H](c3ccccc3)[C@@H](C)[C@@H]3C[C@@]2(O1)N(Cc1ccccc1)C3=O", "growth": 0.908}, {"smiles": "COCOC1CCC(=O)C(C(=O)OC)=C1Oc1cc(O)cc(OC)c1", "note": "(stereo not drawn)", "growth": 0.984}, {"smiles": "C#Cc1cc(O)c2c(=O)c3ccccc3oc2c1", "growth": 1.06}, {"smiles": "CN1c2ccccc2[C@]23CCC[C@]12Oc1c(occc1=O)C3", "growth": 0.862}, {"smiles": "COCOC1CCC(=O)C(C(=O)OC)=C1Oc1cc(OC)cc(OC)c1", "note": "(stereo not drawn)", "growth": 1.03}, {"smiles": "OC[C@H]1O[C@H](C#Cc2ccccc2)C=C[C@@H]1O", "growth": 1.05}, {"smiles": "O=S(=O)(NC1CCCCC1)OCCCc1ccccc1", "growth": 1.17}, {"smiles": "COC(=O)C1=C(C)NC(=O)NC1c1ccc(F)cc1", "note": "(stereo not drawn)", "growth": 1.01}, {"smiles": "COc1ccc(N2C(=O)C3=C(C(C)=NCC(C)(C)N3)C2c2cccc(C(F)(F)F)c2)cc1", "note": "(stereo not drawn)", "growth": 0.935}, {"smiles": "CC(C)=CCc1cc(OCC(=O)O)cc2oc3cccc(O)c3c(=O)c12", "growth": 1.21}, {"smiles": "COc1ccccc1Cn1nc2c(c1CC(C)C)C(c1ccc(C)cc1)NC2=O", "note": "(stereo not drawn)", "growth": 0.908}, {"smiles": "CCCCN(Cc1ccccc1)CC1CCCN(CCc2ccccc2)C1", "note": "(stereo not drawn)", "growth": 0.988}, {"smiles": "CC(C)C1=C[C@H]2[C@H]3Cc4ccccc4[C@H]3[C@@H]1[C@@H](O)[C@]2(C)O", "growth": 0.929}, {"smiles": "CC(C)(C)C[C@@H](O)COc1cc2c(cc1C1(c3cc4c(cc3OC[C@H](O)CC(C)(C)C)OCO4)C(=O)Nc3cc(F)ccc31)OCO2", "growth": 0.955}, {"smiles": "COC(=O)[C@@H]1[C@H](C(=O)NC2CCCCC2)[C@@H](c2ccccc2)[C@H]1c1ccccc1", "growth": 1.09}, {"smiles": "O=c1c2cccc(O)c2oc2cc(O)cc(O)c12", "growth": 0.695}, {"smiles": "CCCCCC[C@]12Cc3cc(OC)c(OC)cc3[C@@H](O1)c1c(c3ccccc3n(C)c1=O)O2", "growth": 0.93}, {"smiles": "COC(=O)C1=C(C)N(CCCOC(C)C)C(=S)NC1c1ccc(C)cc1", "note": "(stereo not drawn)", "growth": 1.28}, {"smiles": "CC(C)[C@@H]1NC(=O)C[C@@H]2C[C@H](C)[C@H](c3ccccc3)N2C1=O", "growth": 1.07}, {"smiles": "COc1ccc([C@@]23Oc4cc(OC)cc(OC)c4[C@]2(O)[C@H](O)[C@H](C(=O)NCCCC(OC)OC)[C@H]3c2ccccc2)cc1", "growth": 1.02}, {"smiles": "COc1ccc(Cn2ccc(N)n2)cc1", "growth": 1.01}]}]}
